The values that follow come from the supplement of paper PMC9446081.

Out of some 39,000 compounds screened, about 220 (0.56%) showed activity. This is one part of the list.
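Also: static incubation at 37 °C against the wild-type strain, values averaged over two biological replicates.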

This assay concerns Escherichia coli K-12 BW25113. Kind of assay: relative growth (OD600 normalised to plate interquartile mean) (fraction); higher = less growth inhibition, active = 0.2 or less. Conditions: 50 µM; LB; incubation time: overnight (16-24 h).
For the compound `COc1ccc(NC(=O)N(C)C[C@H]2OCc3ccccc3-c3c(n(C)c4ccccc34)C(=O)N([C@@H](C)CO)C[C@@H]2C)cc1`, the relative growth was inactive: 0.992.

As to `CCOC(=O)CC1=NC(=O)CS1`, the relative growth was inactive: 1.

Consider `C[C@@H]1CN([C@@H](C)CO)C(=O)c2cccc(NS(C)(=O)=O)c2O[C@@H]1CN(C)C(=O)Nc1ccccc1`, for which the relative growth is inactive: 1.01.

On to `C[C@H](CO)N1C[C@H](C)[C@@H](CN(C)Cc2ccc3c(c2)OCO3)OCCCC[C@H](C)Oc2ccc(NC(=O)Nc3cccc4ccccc34)cc2C1=O`, for which the relative growth is inactive: 1.03.

For `C[C@H](CO)N1C[C@H](C)[C@@H](CN(C)C(=O)C2CCCCC2)Oc2cc(Br)ccc2S1(=O)=O`, the relative growth is inactive: 0.999.

On to `O=c1[nH]cc(N2CCCCC2)c(=O)[nH]1`, for which the relative growth is inactive: 1.

As to `CC(C)(C)[S@](=O)N1Cc2cc(C(=O)N[C@H]3CCN(Cc4ccccc4)C3)nc(-c3cccc(-c4cccnc4)c3)c2[C@@H]1CCO`, the relative growth is inactive: 1.03.

On to `COc1ccc(S(=O)(=O)Nc2ccc3c(c2)CC(=O)N([C@H](C)CO)C[C@@H](C)[C@H](CN(C)Cc2ccc(Cl)c(Cl)c2)O3)cc1`, for which the relative growth was inactive: 0.971.

With `CCCN(C)C[C@H]1OCCCC[C@@H](C)Oc2ccc(NC(=O)Nc3ccccc3)cc2C(=O)N([C@H](C)CO)C[C@@H]1C`, the relative growth is inactive: 0.989.

As for `CO[C@@H]1CN(C)C(=O)c2cc(NS(=O)(=O)c3ccccc3F)ccc2OC[C@@H](C)N(S(C)(=O)=O)C[C@H]1C`, the relative growth is inactive: 0.991.

Regarding `CC(=O)c1ccc(S(=O)(=O)NC(=O)NC2CCCCC2)cc1`, the relative growth is inactive: 1.03.

For the compound `O=C(C[C@H]1CC=CC[C@H](Cc2ccc(F)cc2)C(=O)OC[C@H](Cc2c[nH]c3ccccc23)NC1=O)NCCO`, the relative growth is inactive: 1.01.

In the case of `O=C(c1ccc(S(=O)(=O)N2CCCCCC2)cc1)N(Cc1cccnc1)c1nc2c(F)cc(F)cc2s1`, the relative growth is inactive: 0.994.

For `Cc1noc(C)c1S(=O)(=O)N(C)C[C@@H]1Oc2c(NS(C)(=O)=O)cccc2C(=O)N([C@@H](C)CO)C[C@H]1C`, the relative growth was inactive: 1.01.

In the case of `CC(=O)n1cc([C@H]2C=C(C(=O)N3CCN(C)CC3)O[C@@H](OCc3ccc(CO)cc3)C2)c2ccccc21`, the relative growth was inactive: 1.

`CCS(=O)(=O)Nc1ccc2c(c1)C(=O)N(C)C[C@@H](OC)[C@@H](C)CN(Cc1nccs1)[C@H](C)CO2`: the relative growth was inactive: 1.

With `C[C@@H]1CN([C@@H](C)CO)C(=O)Cc2cc(NC(=O)Cn3cnnn3)ccc2O[C@@H]1CN(C)Cc1ccc(C(F)(F)F)cc1`, the relative growth was inactive: 0.97.

Regarding `C[C@H](CO)N1C[C@H](C)[C@@H](CN(C)Cc2ccc(C(=O)Nc3ccccc3N)cc2)Oc2c(NC(=O)c3nc4ccccc4s3)cccc2C1=O`, the relative growth is inactive: 1.02.

In the case of `C[C@@H]1CCCCO[C@H](CN(C)CC2CCCCC2)[C@H](C)CN([C@@H](C)CO)C(=O)c2cc(NC(=O)C3CCCCC3)ccc2O1`, the relative growth was inactive: 0.979.

As for `COc1ccc(NC(=O)Nc2ccc3c(c2)C(=O)N([C@@H](C)CO)C[C@@H](C)[C@H](CN(C)CC2CC2)OCCCC[C@@H](C)O3)cc1`, the relative growth is inactive: 0.945.

For `C[C@H]1CCCCO[C@H](CN(C)S(=O)(=O)c2ccc(Cl)cc2)[C@@H](C)CN([C@@H](C)CO)C(=O)c2cc(NC(=O)Nc3ccc(C(F)(F)F)cc3)ccc2O1`, the relative growth is inactive: 1.04.

As to `C[C@@H]1CN([C@@H](C)CO)C(=O)c2c(c3ccccc3n2C)-c2ccccc2CO[C@H]1CN(C)C(=O)Nc1cccc(C(F)(F)F)c1`, the relative growth was inactive: 1.03.

Consider `C[C@H](CO)N1C[C@H](C)[C@@H](CN(C)Cc2ccc3c(c2)OCO3)Oc2ccc(NS(=O)(=O)c3cn(C)cn3)cc2CC1=O`, for which the relative growth was inactive: 1.01.

For the compound `C[C@@H]1CCCCO[C@@H](CN(C)C(=O)Nc2ccc(C(F)(F)F)cc2)[C@H](C)CN([C@H](C)CO)C(=O)c2cc(NC(=O)Nc3cccc4ccccc34)ccc2O1`, the relative growth is inactive: 0.973.

As for `CC1(C)C[C@H](n2[nH]c(=O)cc2N)CCO1`, the relative growth was inactive: 0.983.

In the case of `C[C@@H]1CN([C@H](C)CO)C(=O)Cc2cc(NC(=O)Nc3ccc(C(F)(F)F)cc3)ccc2O[C@H]1CN(C)Cc1ccncc1`, the relative growth is inactive: 1.02.

Consider `Cc1noc(C)c1S(=O)(=O)Nc1ccc2c(c1)C(=O)N([C@@H](C)CO)C[C@H](C)[C@H](CN(C)S(=O)(=O)c1cn(C)cn1)OCCCC[C@H](C)O2`, for which the relative growth is inactive: 0.988.

For the compound `COc1cccc(S(=O)(=O)N[C@@H]2CC[C@@H](CC(=O)NC3CCC3)O[C@@H]2CO)c1`, the relative growth was inactive: 1.01.

For the compound `C[C@H](CO)N1C[C@H](C)[C@H](CN(C)CC2CC2)OCCCC[C@H](C)Oc2ccc(NS(=O)(=O)c3cn(C)cn3)cc2C1=O`, the relative growth was inactive: 1.

Take `OCc1cccc(CO)n1`: the relative growth was inactive: 0.983.

Consider `Cc1ccc(-c2ccc3c(c2)O[C@@H](CN(C)Cc2cncnc2)[C@H](C)CN([C@H](C)CO)S3(=O)=O)cc1`, for which the relative growth is inactive: 1.01.

Take `C[C@@H]1CCCCO[C@@H](CN(C)C(=O)Nc2cccc3ccccc23)[C@H](C)CN([C@@H](C)CO)C(=O)c2cc(NS(=O)(=O)c3cn(C)cn3)ccc2O1`: the relative growth was inactive: 0.99.

On to `C[C@@H]1CN([C@@H](C)CO)C(=O)c2cc(NS(C)(=O)=O)ccc2O[C@@H](C)CCCCO[C@H]1CN(C)C(=O)CCCN(C)C`, for which the relative growth is inactive: 1.02.

As to `Cc1ccc(S(=O)(=O)Nc2ccc3c(c2)C(=O)N([C@@H](C)CO)C[C@@H](C)[C@H](CN(C)C(=O)CCC(F)(F)F)OCCCC[C@H](C)O3)cc1`, the relative growth was inactive: 0.979.

`C[C@@H]1CN([C@H](C)CO)C(=O)Cc2cc(NC(=O)Nc3ccc(F)cc3)ccc2O[C@H]1CN(C)Cc1ccc(Cl)c(Cl)c1`: the relative growth was inactive: 1.02.

For the compound `CCS(=O)(=O)N1Cc2cc(C(=O)NCCOC)nc(-c3cccc(-c4ccncc4)c3)c2[C@H]1CCO`, the relative growth was inactive: 1.01.

For `C[C@H]1CN([C@@H](C)CO)C(=O)c2cc(NC(=O)CCC(F)(F)F)ccc2O[C@H]1CN(C)C(=O)Nc1ccc(C(F)(F)F)cc1`, the relative growth was inactive: 0.976.

In the case of `C[C@H](CO)N1C[C@H](C)[C@@H](CN(C)S(=O)(=O)c2ccc(Cl)cc2)Oc2ccc(NC(=O)CCN3CCOCC3)cc2C1=O`, the relative growth was inactive: 0.997.

As to `C[C@H](CO)N1C[C@H](C)[C@@H](CN(C)S(=O)(=O)c2ccccc2)Oc2c(NS(=O)(=O)c3ccc(F)cc3)cccc2C1=O`, the relative growth was inactive: 1.

As for `CC(C)NC(=O)Nc1ccc2c(c1)C(=O)N([C@H](C)CO)C[C@@H](C)[C@H](CN(C)Cc1ccc(C(F)(F)F)cc1)OCCCC[C@@H](C)O2`, the relative growth was inactive: 1.02.

As for `COc1ccc(S(=O)(=O)N(C)C[C@H]2Oc3ccc(NC(=O)NC(C)C)cc3C(=O)N([C@H](C)CO)C[C@@H]2C)cc1`, the relative growth is inactive: 1.01.

With `C[C@H]1CN([C@@H](C)CO)C(=O)c2cccc(N(C)C)c2O[C@H]1CN(C)S(C)(=O)=O`, the relative growth is inactive: 0.995.

As for `C[C@@H]1CN([C@H](C)CO)C(=O)Cc2cc(NC(=O)Nc3ccccc3)ccc2O[C@H]1CN(C)S(=O)(=O)c1cn(C)cn1`, the relative growth was inactive: 0.984.

`C[C@H]1CN([C@@H](C)CO)S(=O)(=O)c2ccc(C#CC3CCCCC3)cc2O[C@@H]1CN(C)C(=O)Cc1ccncc1`: the relative growth was inactive: 1.

On to `C[C@@H]1CC[C@]2(C(=O)O[C@@H]3O[C@H](CO)[C@@H](O)[C@H](O)[C@H]3O)CC[C@]3(C)C(=CC[C@H]4[C@@]5(C)C[C@@H](O)[C@H](O)[C@@](C)(CO)[C@@H]5CC[C@]43C)[C@@H]2[C@]1(C)O`, for which the relative growth is inactive: 0.917.

On to `CC(C)(O/N=C(\C(=O)N[C@@H]1C(=O)N2C(C(=O)O)=C(C[n+]3ccccc3)CS[C@H]12)c1csc(N)n1)C(=O)O`, for which the relative growth is active: 0.0433.

For the compound `NC(=O)NCC#Cc1ccc2c(c1)[C@]1(C(=O)N2)[C@H](c2ccc(OCCO)cc2)N2[C@H](c3ccccc3)[C@H](c3ccccc3)OC(=O)[C@H]2[C@@H]1C(=O)N1CCCCCCC1`, the relative growth is inactive: 1.04.

As for `CO[C@@H]1CN(C)C(=O)c2ccc(NS(=O)(=O)CC(F)(F)F)cc2OC[C@@H](C)N(Cc2ccccn2)C[C@H]1C`, the relative growth was inactive: 0.979.

`COc1ccc([Si](C)(C)[C@H]2[C@H](CCOC(=O)NCCCCCC(=O)NO)O[C@]3(C(=O)N(Cc4ccccc4)c4ccc(NC(=O)[C@@H](C)OC(=O)NCCCCCC(=O)NO)cc43)[C@@H]2C)cc1`: the relative growth is inactive: 0.953.

`C[C@@H]1CN([C@H](C)CO)C(=O)c2cccc(NC(=O)c3ccc(-c4nccs4)cc3)c2O[C@H]1CN(C)Cc1ccc(Oc2ccccc2)cc1`: the relative growth was inactive: 1.05.

For `COc1ccc(S(=O)(=O)Nc2ccc3c(c2)C(=O)N([C@@H](C)CO)C[C@H](C)[C@@H](CN(C)CC2CC2)O3)cc1`, the relative growth was inactive: 0.995.

As for `CN(C)CCCN1C(=O)[C@@H]2[C@@H](C1=O)[C@@H]1C=C[C@@H]2C1`, the relative growth is inactive: 1.01.

As to `C[C@@H]1O[C@H](O)[C@@H](F)[C@H](O)[C@@H]1O`, the relative growth is inactive: 1.02.

Consider `C[C@@H]1CN([C@H](C)CO)C(=O)Cc2cc(NS(=O)(=O)c3ccccc3)ccc2O[C@H]1CN(C)Cc1ccc(Oc2ccccc2)cc1`, for which the relative growth was inactive: 0.972.

As to `NCc1ccc(-c2ccccc2O)cc1`, the relative growth was inactive: 0.978.

Consider `O=C1NC(=S)NC12CCCCC2`, for which the relative growth is inactive: 0.965.

`COc1ccc(NC(=O)Nc2ccc3c(c2)C(=O)N([C@@H](C)CO)C[C@@H](C)[C@H](CN(C)S(C)(=O)=O)O3)cc1`: the relative growth is inactive: 0.983.

In the case of `Cc1noc(C)c1S(=O)(=O)Nc1ccc2c(c1)C(=O)N([C@H](C)CO)C[C@H](C)[C@H](CN(C)C(=O)Nc1ccccc1)O2`, the relative growth is inactive: 0.886.

Regarding `C[C@H](CO)N1C[C@H](C)[C@H](CN(C)C(=O)Nc2ccc(C(F)(F)F)cc2)Oc2c(NC(=O)Nc3ccc(C(F)(F)F)cc3)cccc2C1=O`, the relative growth was inactive: 1.01.
